# The other results are listed elsewhere or left out.
# Tests used:
# Assay in all cases: glycan array binding signal (z-score within array); higher = stronger binding
# Conditions in all cases: glycan notation: IUPAC condensed, linker removed
# Gal4S6S(b1-4)GlcNAc = molecular target: Gal4S6S(b1-4)GlcNAc
# Method in brief: (§1)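 Arrays were curated from the Consortium for Functional Glycomics database, 3228 in total, and kept only where the protein sequence was available. Binding is expressed as a within-array Z-score. This score was averaged across arrays of the same protein sequence at different concentrations or buffers and across linkers, and negative values can be read as non-binding.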
# Gal6S(b1-4)Glc = molecular target: Gal6S(b1-4)Glc
# Method in brief: as §1
# Gal6S(b1-4)Glc6S = molecular target: Gal6S(b1-4)Glc6S
# Method in brief: as §1
# Gal6S(b1-4)GlcNAc = molecular target: Gal6S(b1-4)GlcNAc
# Method in brief: as §1
# GalNAc(a1-3)Gal = molecular target: GalNAc(a1-3)Gal
# Method in brief: as §1
# GalNAc(a1-3)GalNAc = molecular target: GalNAc(a1-3)GalNAc
# Method in brief: as §1
# [1] = molecular target: GalNAc(b1-3)Gal(a1-4)Gal(b1-4)GlcNAc
# Method in brief: as §1
# GalNAc(b1-3)GalNAc = molecular target: GalNAc(b1-3)GalNAc
# Method in brief: as §1
# GalNAc(b1-4)GlcNAc = molecular target: GalNAc(b1-4)GlcNAc
# Method in brief: as §1
# Glc(a1-4)Glc = molecular target: Glc(a1-4)Glc
# Method in brief: as §1
# Glc(a1-6)Glc(a1-6)Glc = molecular target: Glc(a1-6)Glc(a1-6)Glc
# Method in brief: as §1
# Glc(b1-4)Glc = molecular target: Glc(b1-4)Glc
# Method in brief: as §1
# Glc(b1-6)Glc = molecular target: Glc(b1-6)Glc
# Method in brief: as §1
# GlcA(b1-3)Gal = molecular target: GlcA(b1-3)Gal
# Method in brief: as §1
# GlcA(b1-6)Gal = molecular target: GlcA(b1-6)Gal
# Method in brief: as §1
# [2] = molecular target: GlcNAc(a1-3)Gal(b1-4)GlcNAc
# Method in brief: as §1
# [3] = molecular target: GlcNAc(a1-6)Gal(b1-4)GlcNAc
# Method in brief: as §1
# [4] = molecular target: GlcNAc(b1-2)Gal(b1-3)GalNAc
# Method in brief: as §1
# [5] = molecular target: GlcNAc(b1-2)Man(a1-3)[GlcNAc(b1-2)Man(a1-6)]Man(b1-4)GlcNAc(b1-4)GlcNAc
# Method in brief: as §1
# GlcNAc(b1-3)Gal = molecular target: GlcNAc(b1-3)Gal
# Method in brief: as §1
# [6] = molecular target: GlcNAc(b1-3)Gal(b1-3)GalNAc
# Method in brief: as §1
# GlcNAc(b1-3)Gal(b1-4)Glc = molecular target: GlcNAc(b1-3)Gal(b1-4)Glc
# Method in brief: as §1
# [7] = molecular target: GlcNAc(b1-3)Gal(b1-4)GlcNAc
# Method in brief: as §1
# [8] = molecular target: GlcNAc(b1-3)Gal(b1-4)GlcNAc(b1-3)Gal(b1-4)GlcNAc
# Method in brief: as §1
# GlcNAc(b1-3)GalNAc = molecular target: GlcNAc(b1-3)GalNAc
# Method in brief: as §1
# [9] = molecular target: GlcNAc(b1-3)[GlcNAc(b1-6)]Gal(b1-4)GlcNAc
# Method in brief: as §1
# [10] = molecular target: GlcNAc(b1-3)[GlcNAc(b1-6)]GalNAc
# Method in brief: as §1
# [11] = molecular target: GlcNAc(b1-3)[GlcNAc(b1-6)]GlcNAc(b1-4)GlcNAc
# Method in brief: as §1
# [12] = molecular target: GlcNAc(b1-4)Gal(b1-4)GlcNAc
# Method in brief: as §1
# [13] = molecular target: GlcNAc(b1-4)GlcNAc(b1-4)GlcNAc
# Method in brief: as §1
# [14] = molecular target: GlcNAc(b1-4)GlcNAc(b1-4)GlcNAc(b1-4)GlcNAc(b1-4)GlcNAc
# Method in brief: as §1
# [15] = molecular target: GlcNAc(b1-4)GlcNAc(b1-4)GlcNAc(b1-4)GlcNAc(b1-4)GlcNAc(b1-4)GlcNAc
# Method in brief: as §1
# [16] = molecular target: GlcNAc(b1-4)[GlcNAc(b1-6)]GalNAc
# Method in brief: as §1
# [17] = molecular target: GlcNAc(b1-6)Gal(b1-4)GlcNAc
# Method in brief: as §1
# GlcNAc(b1-6)GalNAc = molecular target: GlcNAc(b1-6)GalNAc
# Method in brief: as §1
# Kdn(a2-3)Gal(b1-3)GlcNAc = molecular target: Kdn(a2-3)Gal(b1-3)GlcNAc
# Method in brief: as §1
# Kdn(a2-3)Gal(b1-4)GlcNAc = molecular target: Kdn(a2-3)Gal(b1-4)GlcNAc
# Method in brief: as §1
# [18] = molecular target: Man(a1-2)Man(a1-2)Man(a1-3)Man
# Method in brief: as §1
# [19] = molecular target: Man(a1-2)Man(a1-2)Man(a1-6)[Man(a1-3)]Man
# Method in brief: as §1
# Man(a1-2)Man(a1-3)Man = molecular target: Man(a1-2)Man(a1-3)Man
# Method in brief: as §1
# [20] = molecular target: Man(a1-2)Man(a1-3)[Man(a1-2)Man(a1-6)]Man
# Method in brief: as §1
# [21] = molecular target: Man(a1-2)Man(a1-3)[Man(a1-2)Man(a1-6)]Man(a1-6)[Man(a1-2)Man(a1-2)Man(a1-3)]Man(b1-4)GlcNAc(b1-4)GlcNAc
# Method in brief: as §1
# [22] = molecular target: Man(a1-2)Man(a1-3)[Man(a1-6)]Man(a1-6)[Man(a1-2)Man(a1-3)]Man(b1-4)GlcNAc(b1-4)GlcNAc
# Method in brief: as §1
# [23] = molecular target: Man(a1-2)Man(a1-6)[Man(a1-3)]Man(a1-6)[Man(a1-2)Man(a1-2)Man(a1-3)]Man(b1-4)GlcNAc(b1-4)GlcNAc
# Method in brief: as §1
# Man(a1-3)[Man(a1-6)]Man = molecular target: Man(a1-3)[Man(a1-6)]Man
# Method in brief: as §1
binder,measurement,setting,value
"AICL (Homo sapiens), Q92478 (protein) MMTKHKKCFIIVGVLITTNIITLIVKLTRDSQSLCPYDWIGFQNKCYYFSKEEGDWNSSKYNCSTQHADLTIIDNIEEMNFLRRYKCSSDHWIGLKMAKNRTGQWVDGATFTKSFGMRGSEGCAYLSDDGAATARCYTERKWICRKRIH",glycan array binding signal (z-score),Gal4S6S(b1-4)GlcNAc,0.445
same,glycan array binding signal (z-score),Gal6S(b1-4)Glc,-0.142
same,glycan array binding signal (z-score),Gal6S(b1-4)Glc6S,1.15
same,glycan array binding signal (z-score),Gal6S(b1-4)GlcNAc,-0.369
same,glycan array binding signal (z-score),GalNAc(a1-3)Gal,-0.333
same,glycan array binding signal (z-score),GalNAc(a1-3)GalNAc,-0.423
same,glycan array binding signal (z-score),[1],-0.363
same,glycan array binding signal (z-score),GalNAc(b1-3)GalNAc,-0.439
same,glycan array binding signal (z-score),GalNAc(b1-4)GlcNAc,-0.322
same,glycan array binding signal (z-score),Glc(a1-4)Glc,-0.399
same,glycan array binding signal (z-score),Glc(a1-6)Glc(a1-6)Glc,-0.612
same,glycan array binding signal (z-score),Glc(b1-4)Glc,-0.32
same,glycan array binding signal (z-score),Glc(b1-6)Glc,-0.395
same,glycan array binding signal (z-score),GlcA(b1-3)Gal,5.65
same,glycan array binding signal (z-score),GlcA(b1-6)Gal,4.6
same,glycan array binding signal (z-score),[2],-0.404
same,glycan array binding signal (z-score),[3],-0.437
same,glycan array binding signal (z-score),[4],-0.44
same,glycan array binding signal (z-score),[5],0.226
same,glycan array binding signal (z-score),GlcNAc(b1-3)Gal,-0.329
same,glycan array binding signal (z-score),[6],-0.17
same,glycan array binding signal (z-score),GlcNAc(b1-3)Gal(b1-4)Glc,-0.588
same,glycan array binding signal (z-score),[7],-0.146
same,glycan array binding signal (z-score),[8],-0.374
same,glycan array binding signal (z-score),GlcNAc(b1-3)GalNAc,-0.445
same,glycan array binding signal (z-score),[9],-0.49
same,glycan array binding signal (z-score),[10],-0.206
same,glycan array binding signal (z-score),[11],-0.343
same,glycan array binding signal (z-score),[12],-0.428
same,glycan array binding signal (z-score),[13],-0.413
same,glycan array binding signal (z-score),[14],-0.283
same,glycan array binding signal (z-score),[15],-0.249
same,glycan array binding signal (z-score),[16],-0.45
same,glycan array binding signal (z-score),[17],-0.336
same,glycan array binding signal (z-score),GlcNAc(b1-6)GalNAc,-0.245
same,glycan array binding signal (z-score),Kdn(a2-3)Gal(b1-3)GlcNAc,-0.464
same,glycan array binding signal (z-score),Kdn(a2-3)Gal(b1-4)GlcNAc,2.06
same,glycan array binding signal (z-score),[18],0.265
same,glycan array binding signal (z-score),[19],-0.294
same,glycan array binding signal (z-score),Man(a1-2)Man(a1-3)Man,0.064
same,glycan array binding signal (z-score),[20],-0.4
same,glycan array binding signal (z-score),[21],-0.014
same,glycan array binding signal (z-score),[22],0.965
same,glycan array binding signal (z-score),[23],-0.226
same,glycan array binding signal (z-score),Man(a1-3)[Man(a1-6)]Man,-0.2

# From the supplement of paper PMC8728848
